Results as given in PubChem BioAssay AID463173 (ICCB-Longwood Screening Facility, Harvard Medical School, 2010).
Among all 52,000 compounds or so, about 4,300 (8.3%) were called active. Rule as the data show it: active = survival mostly below about 52% (no sharp cut-off); inactive = mostly above about 56%. Some of the results follow.

Tested on: DeltatarO mutant
Assay: S. aureus survival, RN4220 and DeltatarO strains – OD600, teichoic acid synthesis inhibitors, primary screen (AID 463173)
Conditions: S. aureus RN4220 wild type/DeltatarO growth, OD600, 18 h, hits give low values, screened at 18.75 µg/mL (by protocol)

SMILES | survival
Cc1oc(-c2ccccc2F)nc1CS(=O)(=O)CC(=O)N1CCN(c2ccccc2)CC1 | inactive: 77%
COc1ccc(OC)c(S(=O)(=O)NCC(c2ccc(N(C)C)cc2)N2CCOCC2)c1 (configuration not stated) | inactive: 75%
COC(=O)c1cc(NC(=O)c2cc3c(-c4ccccc4F)nn(C)c3s2)cc(C(=O)OC)c1 | inactive: 93%
COc1ccc(N2CCN(S(=O)(=O)c3ccc(CC(C)C)cc3)CC2)cc1 | active: 56%
O=C(NCC(c1ccco1)S(=O)(=O)c1cccs1)c1ccccc1 (configuration not stated) | inactive: 63%
Cc1c(Cl)cccc1Nc1nn2c(=O)c3ccccc3nc2s1 | inactive: 73%
Cc1ccc(-n2c(C)cc(/C=N/NC(=O)CC3(C)OCCO3)c2C)cc1 | inactive: 90%
CCOC(=O)c1cc2c(=O)n3ccccc3nc2n(Cc2ccco2)c1=NC(=O)c1ccccc1Br | inactive: 71%
O=C(NCc1ccc2c(c1)CCN2C(=O)c1ccccc1)c1cc2ccccc2[nH]1 | active: 6%
CN1CCc2nc3sc(C(=O)c4ccc5c(c4)OCO5)c(N)c3cc2C1 | inactive: 109%
CCc1ccc(NC(=O)c2sc3ncnc(N(C)C4CCCCC4)c3c2C)cc1 | inactive: 101%
CC(=O)C1=C(c2ccc(C)cc2)N(C(C)=O)n2c(nnc2C2CCCCC2)S1 | inactive: 94%
COc1ccc(CNC(=O)Nc2ccc3c(c2)N(C)C(=O)c2ccccc2S3)cc1 | inactive: 112%
CCOc1ccc(C2C(C(N)=O)=C(C)Nc3nc(SCc4ccccc4)nn32)cc1 (configuration not stated) | inactive: 64%
CC1(C)Cc2c(c(N3CCOCC3)nc3oc(C(=O)c4ccccc4)c(N)c23)CO1 | inactive: 90%
O=C(CN1C(=O)COc2ccc(S(=O)(=O)N3CCCC3)cc21)N1CCN(c2ccccc2)CC1 | inactive: 49%
CCc1cc2c(NCCN3CCCCC3)ncnc2s1 | inactive: 85%
Cc1cccc2cc(CN(CCO)S(=O)(=O)c3ccc(Cl)cc3)c(=O)[nH]c12 | inactive: 82%
CC(C)c1ccc(S(=O)(=O)c2nnn3c2nc(N2CCN(C)CC2)c2sccc23)cc1 | inactive: 34%

SMILES | survival
COc1cc(C2c3c(-c4ccccc4O)n[nH]c3C(=O)N2CCO)ccc1OCc1ccccc1 (configuration not stated) | inactive: 77%
COc1cccc(CNC(=O)c2ccc3nc(-c4ccc(F)cc4)c(-c4ccc(F)cc4)nc3c2)c1 | inactive: 99%
CC(=O)c1cccc(NC(=O)c2nc3ccccc3n(C)c2=O)c1 | inactive: 117%
CCOC(=O)c1ccccc1NC(=O)c1c2c(nc3ccccc13)C(=O)N(C1CCCCC1)C2 | inactive: 75%
O=C(NCc1ccco1)C12CC3CC(CC(C3)C1)C2 | inactive: 88%
COc1ccc(-c2nnc(SCc3cc(=O)c4cc(C)cc(C)c4[nH]3)n2C)cc1 | inactive: 104%
O=C(c1cccs1)c1cn(CCOc2ccccc2F)c2ccccc12 | inactive: 104%
CC1=C(C(=O)Nc2ccccc2C)C(c2ccncc2)n2nc(SCc3ccccc3Cl)nc2N1 (configuration not stated) | inactive: 62%
COc1ccc(S(=O)(=O)Nc2cccc(-c3ccc(N4CCC(C)CC4)nn3)c2)cc1OC | inactive: 72%
Cc1cccc(NS(=O)(=O)c2ccccc2)n1 | inactive: 103%
Cc1cccc(-c2noc(-c3ccccc3NC(=O)C3CC(=O)N(c4ccccc4C)C3)n2)c1 (configuration not stated) | inactive: 62%
CCn1c(=O)c2cc(C(=O)Nc3cc(OC)c(OC)c(OC)c3)sc2c2ccccc21 | active: 41%
Cn1ccc2cc(S(=O)(=O)N3CCCC(C(=O)NCc4ccccc4)C3)ccc21 (configuration not stated) | inactive: 103%
c1cc(CNC2CCCCC2)co1 | inactive: 72%
COc1ccc(C(=O)Nc2nc3nc(C)c(Cc4ccccc4)c(=O)n3[nH]2)cc1OC | inactive: 94%
Cc1ccc(CNC(=O)COCc2cc(-c3cccs3)on2)cc1 | inactive: 69%
CCOc1ccc(CNC(=O)C2CCN(S(=O)(=O)N3CCC(C)CC3)CC2)cc1OC | inactive: 75%
CC1=C(C(=O)Nc2cccnc2)C(c2cccc(Br)c2)n2nc(SCc3ccccc3)nc2N1 (configuration not stated) | inactive: 69%
Cc1cccc(CNS(=O)(=O)c2ccc(-c3cnc(C4CC4)o3)cc2)c1 | active: 52%

SMILES | survival
COc1cc(NC(=O)C2CCN(c3cnc4ccccc4n3)CC2)cc(OC)c1OC | active: -5%
CCCc1cc(=O)n2[nH]c(NC(=O)c3ccc(C(C)(C)C)cc3)nc2n1 | inactive: 110%
CC(=O)c1cccc(NC(=O)CN2C=NS(=O)(=O)c3ccc(C)cc32)c1 | inactive: 89%
CCCn1c(SCc2nc3ccccc3[nH]2)nc2ccccc21 | inactive: 95%
CCc1nnc(SCc2c(F)cccc2Cl)c2cc3sccc3n12 | inactive: 94%
CC(C)CCNC(=O)c1ccc2c(c1)NC(=O)C(CS(=O)(=O)Cc1ccc(F)cc1)N2 (configuration not stated) | inactive: 80%
Cc1ccc(NC(=O)Cn2cc(C(=O)C3CC3)c3ccccc32)c(C)c1 | inactive: 90%
CC1=C(C(=O)N2CCN(c3cc(C)ccc3C)CC2)C2(CCC(C)CC2)OC1=O (configuration not stated) | inactive: 73%
COc1ccc(C(C(=O)NCc2ccccc2)N(C(=O)Cn2nnc3ccccc32)c2cccc(OC)c2)cc1 (configuration not stated) | inactive: 50%
O=C(COc1ccc(F)cc1)OCc1cc(=O)n2nc(C3CCCCC3)sc2n1 | inactive: 86%
CC12CC(c3ccccc3O1)C(C(=O)NCc1ccccc1)C(=O)N2 (configuration not stated) | inactive: 92%
Cc1cc(-c2ccc(C)c(S(=O)(=O)NC(c3cccs3)C(C)C)c2)on1 (configuration not stated) | inactive: 71%
CC1(C)CC(=O)C2=C(C1)OC(N)=C(C#N)C21CCCCC1 | inactive: 98%
COc1ccc(NC(=O)CCSc2nc(-c3ccc(OC)cc3)cc(C(F)(F)F)n2)cc1 | inactive: 70%
COc1cccc(NC(=O)CC2NCCNC2=O)c1 (configuration not stated) | inactive: 84%
COc1ccc(C(=O)NCC(c2ccc(N(C)C)cc2)N2CCc3ccccc32)c(OC)c1 (configuration not stated) | inactive: 92%
COc1ccc(S(=O)(=O)NCC(c2ccco2)N2CCOCC2)cc1OC (configuration not stated) | inactive: 67%
CCc1cc(C(=O)Nc2cnn(Cc3ccccc3C)c2)no1 | inactive: 56%
Cc1ccc(NC(=O)CCc2c(C)nc3cc(-c4ccccc4)nn3c2C)cc1F | inactive: 56%
